{"source": "the supplement of paper PMC10126150", "note": "Sequences with one replicate were seen in a single cluster, so their values are uncertain.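 Also: ATP exposure 15 min at 22 °C before imaging.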", "data": [{"test_system": "ATP", "assay": "switch fluorescence ratio, 500 uM ATP over buffer (Cy3 cluster intensity, sum of 5 cycles each) (fold (ratio)); higher = stronger signal-on switching upon ATP binding; sequences stand for … in TCGTCGGCAGCGTCAGATGTGTATAAGAGACAGTTTTTTTTTTTTTTTTTTTTTTTTT…TC", "details": "aptamer strand: ATP DNA aptamer (quencher-CACCTGGGGGAGTATTGCGGAGGAAGG + anchor), 100 nM annealed; ATP concentration: 500 uM; one replicate", "outline": "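Clusters carrying Cy3-labelled switching strands on a modified Illumina MiSeq flow-cell were annealed to 100 nM quencher-labelled ATP aptamer and imaged in selection buffer. They were imaged again after 15 min with 500 uM ATP at 22 °C, over five buffer/ATP cycles with NaOH stripping and re-annealing in between. For each cluster, the fluorescence ratio is the summed Cy3 intensity of the target cycles divided by that of the buffer cycles, averaged per switch-domain sequence. Clusters outside 100-1000 RFU were left out.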", "values": [{"sequence": "TAGTTTAAAC", "switch fluorescence ratio": 1.01}, {"sequence": "TAGTTTAAAT", "switch fluorescence ratio": 1.03}, {"sequence": "TAGTTTCGTA", "switch fluorescence ratio": 0.992}, {"sequence": "TAGTTTTAGT", "switch fluorescence ratio": 1.05}, {"sequence": "TATAAAAAA", "switch fluorescence ratio": 1.02}, {"sequence": "TATAAAATTT", "switch fluorescence ratio": 0.973}, {"sequence": "TATAAAGGTC", "switch fluorescence ratio": 1.03}, {"sequence": "TATAAATACA", "switch fluorescence ratio": 1.01}, {"sequence": "TATAACATTA", "switch fluorescence ratio": 0.964}, {"sequence": "TATAAGATCA", "switch fluorescence ratio": 1}, {"sequence": "TATAATAGCG", "switch fluorescence ratio": 0.999}, {"sequence": "TATAATGAAC", "switch fluorescence ratio": 0.981}, {"sequence": "TATAATGAGG", "switch fluorescence ratio": 0.995}, {"sequence": "TATAATTGG", "switch fluorescence ratio": 0.994}, {"sequence": "TATACCATAA", "switch fluorescence ratio": 0.985}, {"sequence": "TATACCCTCC", "switch fluorescence ratio": 1.48}, {"sequence": "TATACCGATA", "switch fluorescence ratio": 1.05}, {"sequence": "TATACCTACT", "switch fluorescence ratio": 1.31}, {"sequence": "TATACCTCGA", "switch fluorescence ratio": 1}, {"sequence": "TATACGACCG", "switch fluorescence ratio": 1.17}, {"sequence": "TATACTAGAG", "switch fluorescence ratio": 1.07}, {"sequence": "TATACTAGCC", "switch fluorescence ratio": 1.01}, {"sequence": "TATAGAAATG", "switch fluorescence ratio": 1.08}, {"sequence": "TATAGAACGA", "switch fluorescence ratio": 1.03}, {"sequence": "TATAGAAGTC", "switch fluorescence ratio": 1.04}, {"sequence": "TATAGAGGAT", "switch fluorescence ratio": 1.08}, {"sequence": "TATAGGATGT", "switch fluorescence ratio": 0.982}, {"sequence": "TATAGGCAAC", "switch fluorescence ratio": 1.03}, {"sequence": "TATAGTATTA", "switch fluorescence ratio": 0.922}, {"sequence": "TATAGTGCGC", "switch fluorescence ratio": 0.961}, {"sequence": "TATATACTTG", "switch fluorescence ratio": 1.06}, {"sequence": "TATATATGCA", "switch fluorescence ratio": 1.02}, {"sequence": "TATATATTG", "switch fluorescence ratio": 1.04}, {"sequence": "TATATGGGCA", "switch fluorescence ratio": 1.02}, {"sequence": "TATATGTGAC", "switch fluorescence ratio": 1.03}, {"sequence": "TATCAATTCA", "switch fluorescence ratio": 0.985}, {"sequence": "TATCAGAT", "switch fluorescence ratio": 0.979}, {"sequence": "TATCAGGTCT", "switch fluorescence ratio": 1.02}, {"sequence": "TATCAGTCCC", "switch fluorescence ratio": 1.01}, {"sequence": "TATCAGTGCT", "switch fluorescence ratio": 1}, {"sequence": "TATCAGTTAG", "switch fluorescence ratio": 0.986}, {"sequence": "TATCATAACA", "switch fluorescence ratio": 1.02}, {"sequence": "TATCATAATT", "switch fluorescence ratio": 1.01}, {"sequence": "TATCCAATCG", "switch fluorescence ratio": 0.987}, {"sequence": "TATCCACAGA", "switch fluorescence ratio": 1.01}, {"sequence": "TATCCCGATT", "switch fluorescence ratio": 0.992}, {"sequence": "TATCGAACAC", "switch fluorescence ratio": 1.06}, {"sequence": "TATCGCGGAC", "switch fluorescence ratio": 1.79}, {"sequence": "TATCGCTAGC", "switch fluorescence ratio": 1.05}, {"sequence": "TATCGTCGCT", "switch fluorescence ratio": 1.01}, {"sequence": "TATCTACGAC", "switch fluorescence ratio": 1.12}, {"sequence": "TATCTAGCCT", "switch fluorescence ratio": 1.05}, {"sequence": "TATCTATATC", "switch fluorescence ratio": 1.02}, {"sequence": "TATCTCACCT", "switch fluorescence ratio": 1.19}, {"sequence": "TATCTCTTGA", "switch fluorescence ratio": 1.01}, {"sequence": "TATCTGATTG", "switch fluorescence ratio": 0.962}, {"sequence": "TATCTGCAGA", "switch fluorescence ratio": 0.992}, {"sequence": "TATCTGGCAC", "switch fluorescence ratio": 1.04}, {"sequence": "TATCTGTCCA", "switch fluorescence ratio": 0.954}, {"sequence": "TATCTGTCTG", "switch fluorescence ratio": 1.03}, {"sequence": "TATCTGTGTG", "switch fluorescence ratio": 0.972}, {"sequence": "TATCTTGAGT", "switch fluorescence ratio": 0.953}, {"sequence": "TATCTTTCTA", "switch fluorescence ratio": 0.982}, {"sequence": "TATGAAAGGT", "switch fluorescence ratio": 1.07}, {"sequence": "TATGAAGCGC", "switch fluorescence ratio": 0.974}, {"sequence": "TATGAAGGAT", "switch fluorescence ratio": 1.03}, {"sequence": "TATGAATGAA", "switch fluorescence ratio": 1.02}, {"sequence": "TATGACCACA", "switch fluorescence ratio": 1.04}, {"sequence": "TATGAGAGTT", "switch fluorescence ratio": 1.02}, {"sequence": "TATGAGATCT", "switch fluorescence ratio": 1}, {"sequence": "TATGAGTTAA", "switch fluorescence ratio": 0.998}, {"sequence": "TATGAGTTTG", "switch fluorescence ratio": 0.976}, {"sequence": "TATGATTAGC", "switch fluorescence ratio": 0.994}, {"sequence": "TATGCCAACG", "switch fluorescence ratio": 1.03}, {"sequence": "TATGCGTTG", "switch fluorescence ratio": 0.971}, {"sequence": "TATGCTACCC", "switch fluorescence ratio": 1.21}, {"sequence": "TATGCTTGCA", "switch fluorescence ratio": 0.988}, {"sequence": "TATGGAGTAA", "switch fluorescence ratio": 1.03}, {"sequence": "TATGGATTTG", "switch fluorescence ratio": 1.01}, {"sequence": "TATGGCTCAG", "switch fluorescence ratio": 1.03}, {"sequence": "TATGGGGCCG", "switch fluorescence ratio": 1.06}, {"sequence": "TATGGGTATT", "switch fluorescence ratio": 0.988}, {"sequence": "TATGGTAACG", "switch fluorescence ratio": 0.965}, {"sequence": "TATGGTGTTA", "switch fluorescence ratio": 0.989}, {"sequence": "TATGGTTAGC", "switch fluorescence ratio": 1.02}, {"sequence": "TATGTCGAC", "switch fluorescence ratio": 1.01}, {"sequence": "TATGTGAATT", "switch fluorescence ratio": 0.993}, {"sequence": "TATGTGCTAA", "switch fluorescence ratio": 1.04}, {"sequence": "TATGTTACGA", "switch fluorescence ratio": 1.04}, {"sequence": "TATGTTGTGC", "switch fluorescence ratio": 1}, {"sequence": "TATTAAATAG", "switch fluorescence ratio": 0.994}, {"sequence": "TATTACCAGG", "switch fluorescence ratio": 1.4}, {"sequence": "TATTACCTGG", "switch fluorescence ratio": 0.974}, {"sequence": "TATTAGCACT", "switch fluorescence ratio": 1.01}, {"sequence": "TATTAGCTAA", "switch fluorescence ratio": 0.976}, {"sequence": "TATTAGTAT", "switch fluorescence ratio": 0.98}, {"sequence": "TATTAGTATA", "switch fluorescence ratio": 0.969}, {"sequence": "TATTCACACT", "switch fluorescence ratio": 1.03}, {"sequence": "TATTCATGAC", "switch fluorescence ratio": 1.03}, {"sequence": "TATTCATGC", "switch fluorescence ratio": 0.999}, {"sequence": "TATTCCCCCT", "switch fluorescence ratio": 1.18}, {"sequence": "TATTCCTCGG", "switch fluorescence ratio": 1.37}, {"sequence": "TATTCGTGTG", "switch fluorescence ratio": 0.978}, {"sequence": "TATTCTAGAA", "switch fluorescence ratio": 1.03}, {"sequence": "TATTCTGTCG", "switch fluorescence ratio": 1.03}, {"sequence": "TATTGACCGC", "switch fluorescence ratio": 1.1}, {"sequence": "TATTGAGTCC", "switch fluorescence ratio": 0.995}, {"sequence": "TATTGCATGG", "switch fluorescence ratio": 1.02}, {"sequence": "TATTGCGAG", "switch fluorescence ratio": 0.956}, {"sequence": "TATTGGCATG", "switch fluorescence ratio": 1.02}, {"sequence": "TATTGTAACG", "switch fluorescence ratio": 1.01}, {"sequence": "TATTGTTG", "switch fluorescence ratio": 0.97}, {"sequence": "TATTTAAACC", "switch fluorescence ratio": 1}, {"sequence": "TATTTAAGGA", "switch fluorescence ratio": 0.991}, {"sequence": "TATTTCAAGC", "switch fluorescence ratio": 1.01}, {"sequence": "TATTTCCTTT", "switch fluorescence ratio": 0.978}, {"sequence": "TATTTCGCAA", "switch fluorescence ratio": 5.18}, {"sequence": "TATTTCTATG", "switch fluorescence ratio": 1.02}, {"sequence": "TATTTGATGA", "switch fluorescence ratio": 1}, {"sequence": "TATTTGGTAA", "switch fluorescence ratio": 0.96}, {"sequence": "TATTTTATCT", "switch fluorescence ratio": 0.98}, {"sequence": "TATTTTCA", "switch fluorescence ratio": 0.985}, {"sequence": "TATTTTCACA", "switch fluorescence ratio": 1.04}, {"sequence": "TATTTTCACG", "switch fluorescence ratio": 1.02}, {"sequence": "TATTTTT", "switch fluorescence ratio": 0.987}, {"sequence": "TATTTTTCCC", "switch fluorescence ratio": 1.02}, {"sequence": "TATTTTTTT", "switch fluorescence ratio": 1}, {"sequence": "TCAAAACGT", "switch fluorescence ratio": 1.07}, {"sequence": "TCAAAAGCCG", "switch fluorescence ratio": 0.999}, {"sequence": "TCAAACGGTG", "switch fluorescence ratio": 1.01}, {"sequence": "TCAAACGTCA", "switch fluorescence ratio": 1.07}, {"sequence": "TCAAACTATT", "switch fluorescence ratio": 1.03}, {"sequence": "TCAAAGCTTA", "switch fluorescence ratio": 1.02}, {"sequence": "TCAAAGGTCC", "switch fluorescence ratio": 0.971}, {"sequence": "TCAAAGTAAC", "switch fluorescence ratio": 1.02}, {"sequence": "TCAACAATTT", "switch fluorescence ratio": 0.99}, {"sequence": "TCAACAGGTA", "switch fluorescence ratio": 1.04}, {"sequence": "TCAACATTAC", "switch fluorescence ratio": 1.41}, {"sequence": "TCAACATTT", "switch fluorescence ratio": 0.977}, {"sequence": "TCAACCCAGG", "switch fluorescence ratio": 3.24}, {"sequence": "TCAACGAGCT", "switch fluorescence ratio": 1.01}, {"sequence": "TCAACGGGAT", "switch fluorescence ratio": 1.01}, {"sequence": "TCAACGGGTC", "switch fluorescence ratio": 1.08}, {"sequence": "TCAACGTCG", "switch fluorescence ratio": 0.929}, {"sequence": "TCAAGATCTG", "switch fluorescence ratio": 0.942}, {"sequence": "TCAAGATGG", "switch fluorescence ratio": 0.987}, {"sequence": "TCAAGATTTA", "switch fluorescence ratio": 0.928}, {"sequence": "TCAAGGCCCC", "switch fluorescence ratio": 0.969}, {"sequence": "TCAAGGTAGG", "switch fluorescence ratio": 1}, {"sequence": "TCAAGGTTGA", "switch fluorescence ratio": 0.989}, {"sequence": "TCAAGTCTCC", "switch fluorescence ratio": 0.997}, {"sequence": "TCAAGTTTT", "switch fluorescence ratio": 1.11}, {"sequence": "TCAATACTGA", "switch fluorescence ratio": 1.19}, {"sequence": "TCAATATCTG", "switch fluorescence ratio": 0.978}]}]}
